Measured values reported in the supplement of paper PMC9446081.
Hit rate of the full screen: of about 39,000 compounds, about 220 (0.56%) showed activity. The list shows a part of the results.
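Also: static incubation at 37 °C against the wild-type strain, values averaged over two biological replicates.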

The molecules below were run on Escherichia coli K-12 BW25113 (assay: relative growth (OD600 normalised to plate interquartile mean) (fraction); higher = less growth inhibition, active = 0.2 or less). Details: 50 µM; LB; incubation time: overnight (16-24 h).
`CC(C)c1cn(CC[C@@H]2CC[C@H](N)[C@@H](CO)O2)nn1` was tested, and the relative growth was inactive: 0.994. `CO[C@@H](C(=O)N(C)C[C@H]1OCc2ccccc2-c2c(n(C)c3ccccc23)C(=O)N([C@H](C)CO)C[C@H]1C)c1ccccc1` was tested, and the relative growth was inactive: 1.01. In the case of `CC(=O)Nc1nnc2n1CCS2`, the relative growth is reported as inactive: 1.02. `CCCNC(=O)[C@H]1[C@H](CO)[C@H]2Cn3c(ccc(-c4ccccc4OC)c3=O)[C@H]2N1S(C)(=O)=O` was tested, and the relative growth was inactive: 1.01. With `COc1ccc(S(=O)(=O)N(C)C[C@H]2Oc3ccc(NC(=O)CCN4CCOCC4)cc3C(=O)N([C@@H](C)CO)C[C@@H]2C)cc1` the relative growth was inactive: 0.996. For `C[C@H](CO)N1C[C@H](C)[C@@H](CN(C)C(=O)Nc2cccc3ccccc23)Oc2ccc(NC(=O)Nc3ccc(F)cc3)cc2CC1=O`, the relative growth was inactive: 0.997. In the case of `CCc1cc(C(N)=O)c(N)s1`, the relative growth is reported as inactive: 0.979. In the case of `C[C@H]1CN([C@@H](C)CO)C(=O)c2cccc(NC(=O)Nc3ccc(C(F)(F)F)cc3)c2O[C@@H]1CN(C)Cc1ccc(C(F)(F)F)cc1`, the relative growth is reported as inactive: 0.91. `CN1C(=O)c2cc(NC(=O)C3CCCC3)ccc2OC[C@H]2O[C@H](CC(=O)NCCc3ccncc3)CC[C@H]21` was tested, and the relative growth was inactive: 0.985. With `O=C(C[C@@H]1CC[C@@H](NC(=O)c2cnccn2)[C@@H](CO)O1)NCc1ccccc1F` the relative growth was inactive: 1.05. With `CS(=O)(=O)NC[C@@]12COC[C@H]1CN(C(=O)COC1CCCC1)C2` the relative growth was inactive: 0.984. For `COc1ccc(CN(C)C[C@@H]2OCCCC[C@@H](C)Oc3ccc(NS(=O)(=O)c4ccccc4)cc3C(=O)N([C@H](C)CO)C[C@H]2C)cc1`, the relative growth was inactive: 1.03. For `C[C@@H]1CCCCO[C@H](CN(C)S(=O)(=O)c2ccc(Cl)cc2)[C@@H](C)CN([C@H](C)CO)C(=O)c2cc(NC(=O)CCC(F)(F)F)ccc2O1`, the relative growth was inactive: 1.02. In the case of `C[C@H]1CCCCO[C@H](CN(C)C(=O)Nc2ccc(C(F)(F)F)cc2)[C@@H](C)CN([C@@H](C)CO)C(=O)c2cc(NC(=O)NC3CCCCC3)ccc2O1`, the relative growth is reported as inactive: 1.01. With `O=C(C[C@@H]1C[C@@H]2c3cc(NC(=O)C4CCOCC4)ccc3O[C@@H]2[C@H](CO)O1)NCc1cc(F)ccc1F` the relative growth was inactive: 0.955. For `CN1C(=O)[C@@H]2[C@H](N=CN2CCCO)N(C)C1=O`, the relative growth was inactive: 0.982. `CCCNC(=O)N1C[C@@H](O)COC[C@@H]2O[C@H](CC(=O)N3CCN(C)CC3)CC[C@H]21` was tested, and the relative growth was inactive: 1.01. For `C[C@@H]1CN([C@H](C)CO)C(=O)Cc2cc(NC(=O)C3CC3)ccc2O[C@H]1CN(C)Cc1ccc(C(=O)O)cc1`, the relative growth was inactive: 0.972. With `C[C@@H]1CN([C@@H](C)CO)C(=O)c2cccc(NS(=O)(=O)c3cccs3)c2O[C@H]1CN(C)S(=O)(=O)c1ccccc1` the relative growth was inactive: 0.991. With `C[C@@H]1CCCCO[C@H](CN(C)S(=O)(=O)c2ccc(F)cc2)[C@H](C)CN([C@H](C)CO)C(=O)c2cc(NC(=O)Nc3ccc(F)cc3)ccc2O1` the relative growth was inactive: 1. In the case of `C[C@H](CO)N1C[C@H](C)[C@H](CN(C)S(=O)(=O)c2cn(C)cn2)Oc2ccc(NC(=O)C3CCCCC3)cc2CC1=O`, the relative growth is reported as inactive: 0.989. For `C[C@@H]1CCCCO[C@H](CN(C)C(=O)Nc2ccccc2)[C@H](C)CN([C@@H](C)CO)C(=O)c2cc(NC(=O)Nc3ccc(C(F)(F)F)cc3)ccc2O1`, the relative growth was inactive: 1.03. For `COc1ccc(NC(=O)Nc2ccc3c(c2)C(=O)N([C@@H](C)CO)C[C@H](C)[C@H](CN(C)S(=O)(=O)c2ccc(C)cc2)OCCCC[C@H](C)O3)cc1`, the relative growth was inactive: 1.01. With `O=C(C[C@@H]1CC[C@@H]2[C@H](COC[C@@H](O)CN2S(=O)(=O)c2cccc(Cl)c2)O1)NC1Cc2ccccc2C1` the relative growth was inactive: 0.985. `Nc1cc(-c2ccncc2)c[nH]c1=O` was tested, and the relative growth was inactive: 1. `COc1ccc(NC(=O)N(C)C[C@H]2OCc3ccccc3-c3c(n(C)c4ccccc34)C(=O)N([C@H](C)CO)C[C@H]2C)c(OC)c1` was tested, and the relative growth was inactive: 0.995. `C[C@H](CO)N1C[C@H](C)[C@H](CN(C)C(=O)Nc2cccc3ccccc23)Oc2ccc(NS(=O)(=O)c3ccc(Cl)cc3)cc2C1=O` was tested, and the relative growth was inactive: 1.01. For `C[C@@H]1CCCCO[C@H](CN(C)S(=O)(=O)c2ccccc2)[C@H](C)CN([C@@H](C)CO)C(=O)c2cc(NC(=O)c3ccccc3)ccc2O1`, the relative growth was inactive: 1.01. For `C[C@H](O)[C@H](O)[C@H]1CNc2[nH]c(N)nc(=O)c2N1`, the relative growth was inactive: 1. With `COC(=O)[C@H](Cc1ccc(-n2cc(CCC(=O)NO)nn2)cc1)N1CC2=C[C@H]([C@@H](O)Cc3ccccc3)n3c(=O)n(C)c(=O)n3[C@@H]2[C@@H](C2CC2)O1` the relative growth was inactive: 1. In the case of `Fc1cccc(-c2csc(COc3ccccc3Cl)n2)c1`, the relative growth is reported as inactive: 1.02. In the case of `COCC(=O)Nc1ccc2c(c1)C(=O)N(C)C[C@@H](OC)[C@H](C)CN(C(=O)CN1CCOCC1)[C@H](C)CO2`, the relative growth is reported as inactive: 1.01. For `COc1ccc(S(=O)(=O)Nc2ccc3c(c2)CC(=O)N([C@H](C)CO)C[C@H](C)[C@H](CN(C)CC2CC2)O3)cc1`, the relative growth was inactive: 0.994. `C[C@@H]1CN([C@@H](C)CO)C(=O)c2cc(NS(=O)(=O)c3ccc(F)cc3)ccc2O[C@@H](C)CCCCO[C@@H]1CN(C)Cc1ccc2c(c1)OCO2` was tested, and the relative growth was inactive: 0.97. With `CCS(=O)(=O)N1C[C@]2(CN(C2)S(=O)(=O)c2cn(cn2)C)c2c(n(c3cc(ccc23)OC)C)[C@@H]1CO` the relative growth was inactive: 1. `C[C@@H]1CN([C@H](C)CO)C(=O)c2cc(NC(=O)Nc3ccc(F)cc3)ccc2O[C@H]1CN(C)Cc1ccc(Cl)c(Cl)c1` was tested, and the relative growth was inactive: 1.02. In the case of `Cc1ccccc1-c1ccc2c(c1)O[C@@H](CN(C)C(=O)Nc1ccc(C(F)(F)F)cc1)[C@@H](C)CN([C@H](C)CO)S2(=O)=O`, the relative growth is reported as inactive: 0.99. With `COc1cccc(S(=O)(=O)Nc2ccc3c(c2)[C@H]2C[C@@H](CC(=O)NC4CCCCC4)O[C@H](CO)[C@H]2O3)c1` the relative growth was inactive: 0.981. `C[C@@H]1CN([C@H](C)CO)C(=O)Cc2cc(NC(=O)c3ccncc3)ccc2O[C@@H]1CN(C)Cc1ccc(C(=O)O)cc1` was tested, and the relative growth was inactive: 0.968.
